Test results: patent US5652334A, “Method for design of substances that enhance memory and improve the quality of life” (City of Hope, priority 1993, dated 1997)
At least one peptide structure holds a part that was inferred or is arguable (an end, a ring closure or a residue). Ends that are not written are not given here. Peptide text beside a SMILES is read from it.

Tests used:
CD-1 male mice [1] = assay: Footshock active avoidance training (FAAT) in T-maze, amnesia test in well-trained mice, post-training ICV injection; assay type: in vivo; details: for amnestic effect on retention of FAAT / mean trials to criterion ±SEM: post-training ICV; for amnestic effect on retention of FAAT: 6.14 nmol of peptide per mouse (except dose-response curves), well-trained mice, retention tested one week later; for mean trials to criterion ±SEM: 6.14 nmol per mouse, vehicle 6.80±0.21
Method: (§1) Test Animals. After 1 week in the laboratory, CD-1 male mice obtained from Charles River Breeding Laboratories were caged individually 24-28 hours prior to training and remained singly housed until retention was tested one week later. Animal rooms were on a 12 hour light/dark cycle with lights going on at the hour of 0600. Median body weight was 35 g, with a range of 33-38 g. Mice were assigned randomly to groups of 15 in the experiments reported in FIGS. 1-18 and groups of 10 for the dose-response curves (FIGS. 19 and 20) and were trained and tested between the hours of 0700 and 1500.
(§2) Peptides Tested. With the exception of Val Phe and Phe Val from Sigma, all peptides used in these studies were synthesized and analyzed to establish purity by standard methods at the Beckman Research Institute. Peptides were dissolved in: (1) saline; (2) 8% vol/vol dimethyl sulfoxide; (3) glacial acetic acid neutralized with […]; or (4) NaOH neutralized with HCl.
With exception of dose-response curves, the experiments reported below tested whether or not there was an amnestic effect at 6.14 nmol of peptide per mouse.
(§3) Apparatus, Training and Testing Procedures. The T-maze used for footshock active avoidance training (FAAT) consisted of a black plastic alley (46 cm long) with a start box at one end and two goal boxes (17.5 cm long) at the other. The start box was separated from the alley by a plastic guillotine door that prevented movement down the alley until training began. The alley was 12.5 cm deep and 9.8 cm wide. An electrifiable stainless steel rod floor ran throughout the maze.
(§4) Mice were not permitted to explore the maze before training. A block of training trials began when a mouse was placed in the start box. The guillotine door was raised and a muffled doorbell-type buzzer sounded simultaneously; footshock was 5 seconds later through a scrambled grid floor shocker (Colbourn Instruments, Model E13-08). The goal box first entered during the first set of trials was designated as "incorrect", and footshock was continued until the mouse entered the other goal box, which in all subsequent trials was designated "correct" for the particular mouse. At the end of each group of trials, the mouse was removed to its home cage.
As training proceeded, a mouse made one of two types of responses. A response latency longer than 5 seconds was classed as an escape from the footshock. A response latency less than or equal to 5 seconds was considered an avoidance, since the mouse avoided receiving a footshock. Two exclusion criteria were applied to reduce learning variability among mice, as follows. On the first training trials, mice with escape latencies greater than 20 seconds were discarded. Mice not having at least one errorless escape latency between 1.5 and 3.5 seconds on training trials 3 or 4 were excluded. […] Mice received five such training trials. One week after training and post-trial administration of vehicle alone or vehicle containing test substance, T-maze training was resumed until each mouse made five avoidance responses in six consecutive training trials (trials to criterion). The recall score was taken to be the percentage of tested mice remembering original training.
In these instances, training was performed under conditions that tend to maximize learning (sound intensity, 65 decibels; footshock current, 0.35 mA; intertrial interval, 45 seconds).

CD-1 male mice [2] = assay: FAAT in T-maze, memory-enhancement test in weakly trained mice (poor retention in vehicle controls), post-training ICV injection; assay type: in vivo; details: for Lowest Concentration For Significant Memory Enhancement: Table 1
Method: as §1
as §2, with “HCl. […] Analysis of variance showing insignificant differences among the latter, the value for the most frequently employed (No. 2 above) was used for comparison with groups receiving test peptides.” for “HCl.”
as §3, §4
As training proceeded, a mouse made one of two types of responses. A response latency longer than 5 seconds was classed as an escape from the footshock. A response latency less than or equal to 5 seconds was considered an avoidance, since the mouse avoided receiving a footshock. Two exclusion criteria were applied to reduce learning variability among mice, as follows. On the first training trials, mice with escape latencies greater than 20 seconds were discarded. Mice not having at least one errorless escape latency between 1.5 and 3.5 seconds on training trials 3 or 4 were excluded. The total exclusions were fewer than 15%. Mice received five such training trials. One week after training and post-trial administration of vehicle alone or vehicle containing test substance, T-maze training was resumed until each mouse made five avoidance responses in six consecutive training trials (trials to criterion). The recall score was taken to be the percentage of tested mice remembering original training.
Well-trained animals (recall score approximately 80%) were used to determine whether or not administered substances could cause amnesia. In these instances, training was performed under conditions that tend to maximize learning (sound intensity, 65 decibels; footshock current, 0.35 mA; intertrial interval, 45 seconds). In the cases in which it was desired to detect whether or not there was an enhancing effect on memory, training conditions were adjusted so that the initial recall score in vehicle controls was only approximately 20% (sound intensity, 55 decibels; footshock current, 0.30 mA; intertrial interval, 30 seconds). […]

Row | Molecule | amnestic efficacy/potency compared with another peptide (CD-1 male mice [1]; ICV, dose-response curves / FIG. 19) | amnestic effect on retention of FAAT (CD-1 male mice [1]) | mean trials to criterion ±SEM (CD-1 male mice [1]) | memory-enhancing potency compared with other peptides (CD-1 male mice [2]) | Lowest Concentration For Significant Memory Enhancement (CD-1 male mice [2])
1 | CC(C)[C@H](NC(=O)[C@H](C)N)C(=O)N[C@@H](Cc1ccccc1)C(=O)N[C@H](C(=O)O)[C@@H](C)O [Ala Val Phe Thr] (H-AVFT-OH) | molar efficacy similar to that of VIP | amnestic | – | – | –
2 | CC(C)[C@H](NC(=O)[C@H](Cc1ccccc1)NC(=O)[C@@H](N)CCC(N)=O)C(=O)NCC(=O)O [Gln Phe Val Gly] (H-QFVG-OH) | – | – | 6.80±0.39 | – | –
3 | CC(C)[C@H](NC(=O)[C@H](Cc1ccccc1)NC(=O)[C@@H](N)Cc1ccccc1)C(=O)NCC(=O)O [Phe Phe Val Gly] (H-FFVG-OH) | – | – | – | closely similar potencies | 2 × 10^-11 Moles/Mouse
4 | CC(C)[C@H](NC(=O)[C@H](Cc1ccccc1)NC(=O)[C@@H](N)Cc1ccccc1)C(=O)O [Phe Phe Val] (H-Phe-Phe-Val-OH) | – | amnestic | – | – | –
5 | CC(C)[C@H](NC(=O)[C@@H](N)Cc1ccccc1)C(=O)O [Phe Val] (H-Phe-Val-OH) | – | amnestic | 0.4±0.46 | approximately the same potency as Val Phe Phe | 2 × 10^-11 Moles/Mouse
6 | N[C@@H](CO)C(=O)N[C@@H](Cc1ccccc1)C(=O)N[C@@H](Cc1ccccc1)C(=O)NCC(=O)O [Ser Phe Phe Gly] (H-SFFG-OH) | – | – | 7.33±0.46 | – | –
7 | CC(C)[C@H](NC(=O)[C@H](Cc1ccccc1)NC(=O)[C@@H](N)CO)C(=O)NCC(=O)O [Ser Phe Val Gly] (H-SFVG-OH) | – | – | 7.47±0.47 | – | –
8 | CC(C)[C@H](N)C(=O)N[C@@H](Cc1ccccc1)C(=O)O [Val Phe] (H-Val-Phe-OH) | – | amnestic | 9.13±0.42 | approximately the same potency as Val Phe Phe | 2 × 10^-11 Moles/Mouse
9 | CC(C)[C@H](N)C(=O)N[C@H](C(=O)N[C@@H](Cc1ccccc1)C(=O)O)C(C)C [Val Val Phe] (H-Val-Val-Phe-OH) | – | – | – | closely similar potencies | 1 × 10^-11 Moles/Mouse
10 | CC(C)[C@H](N)C(=O)N[C@H](C(=O)O)C(C)C [Val Val] (H-Val-Val-OH) | – | amnestically ineffective | 6.8±0.31 | – | –
11 | C[C@H](NC(=O)[C@@H](N)CC(=O)O)C(=O)N[C@@H](CCC(=O)O)C(=O)N[C@@H](Cc1ccccc1)C(=O)N[C@@H](CCCNC(=N)N)C(=O)N[C@@H](Cc1c[nH]cn1)C(=O)N[C@@H](CC(=O)O)C(=O)N[C@@H](CO)C(=O)NCC(=O)N[C@@H](Cc1ccc(O)cc1)C(=O)N[C@@H](CCC(N)=O)C(=O)O [β-(1-11)] | – | – | 6.93±0.28 | – | –
12 | KLFFVAE [Lys Leu Phe Phe Val Ala Glu] | – | potent amnestic | – | – | –
